Out of some 410,000 compounds screened, about 7,200 (1.8%) were called active. Inconclusive results, whose numbers are uncertain, are shown with a selection of clear calls. Calls come from the whole dose curve; as a rule, active = well fitted activation curve with a large enough effect; inconclusive = small, poorly fitted or top-dose-only effect, or another doubt; inactive = no such curve, though single readings can be large or run the other way. Potencies beside an inconclusive call are fits to weak or partial responses and may not hold up.
experiment: qHTS of TDP-43 Inhibitors; conditions: TDP-43 expressing yeast growth rescue, BacTiter-Glo, 24 h; growth rescue (activation): at 46.1 µM (top of the series) unless noted; note: nearly all actives have a fitted effect of over 50% in size; for growth rescue (activation): % of control where 0% means no effect
Outline: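 Cell-based yeast growth screen: TDP-43 expression induced in galactose, inoculum OD600=0.02 after raffinose pregrowth to mid-log. Read-out BacTiter-Glo luminescence at 24 hr, 30 deg C; inhibition of toxicity seen as signal increase.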
Potency is the fitted concentration of half-maximal effect; tags give direction and shape of the fitted curve.

Potency, active:
Cc1ccc(-n2ccnc(NCc3ccccc3)c2=O)cc1C 31.6 µM
CC1(C(=O)Nc2cccc3c2CCCC3)CCN1C(=O)c1cccc(F)c1 (stereo not given) 28.2 µM
CC[C@@H]1C(c2ccc(F)cc2)=NN(c2ccc(Br)cc2)[C@H]1C(=O)N1CCOC1=O 14.1 µM
CCc1ccc(-c2nc(CN3CCC(C(=O)NCc4ccc(F)cc4)CC3)c(C)o2)cc1 2 µM
COc1ccc(NC(=O)C2Cc3c(-c4ccc(Cl)cc4)ccnc3O2)cn1 (stereo not given) 35.5 µM
CCOC(=O)c1c(C)sc2c1N(C(=O)CCl)c1cc(Cl)ccc1S2 20 µM
Clc1cccc(Cc2c(-c3cccc(Cl)c3)nc3ccc(Cl)cn23)c1 12.6 µM
COc1ccc(N2CCN(C(=O)c3cn(C4CCCC4)c(=O)c4c3c3ccccc3n4C)CC2)cc1 20 µM
Cc1ccc(NC(=S)NCc2ccc3c(c2)OCO3)cc1 22.4 µM

Potency, inconclusive:
COc1ccc(CCNC(=O)c2cc(CC(C)C)on2)cc1OC 20 µM [activator, partial curve, poor fit]
Cc1ccc(N2CCN(C(=O)N3CCCC3)CC2)cc1C 8.91 µM [activator, partial curve]
COc1cc2c(c3oc(-c4ccccc4)cc(=O)c13)C=CC(C)(C)O2 35.5 µM [activator, partial curve]
O=S(=O)(c1ccccc1)n1cc(-c2cccc3nccn23)c2ccccc21 11.2 µM [activator, partial curve]
O=C1OCCC1S(=O)(=O)c1ccc2ccccc2c1 (stereo not given) 14.1 µM [activator, single point]
O=C(/C=C/C(Cl)(Cl)Cl)Nc1ccc(Cl)cc1 10 µM [activator, partial curve]
CCNC(=O)COc1ccc(-c2ccccc2)cc1 35.5 µM [activator, partial curve]
Nc1ncnc2nc(SCc3ccc(Cl)cc3Cl)[nH]c12 0.282 µM [activator, partial curve]
O=C(Nc1ccc(Nc2ccccc2)cc1)c1ccco1 15.8 µM [activator, single point]
COc1ccc(OCCCn2c(=O)oc3ccc(C)cc32)cc1 12.6 µM [activator, single point]
COc1ccc(-c2coc3c(C(=O)NC(C)C)cccc23)c(C)c1 12.6 µM [activator, partial curve]
Cc1ccc([N+](=O)[O-])cc1NC(=S)NC(=O)C(C)(C)C 20 µM [activator, single point]
CC(C)(C)OC(=O)NCCc1onc(-c2ccc([N+](=O)[O-])cc2)c1C(=O)O 39.8 µM [activator, partial curve]
COc1ccc(-c2nn(-c3ccccc3)cc2C(=O)NCC(c2cccs2)N2CCOCC2)cc1 (stereo not given) 10 µM [activator, partial curve]
CC(C)(C)c1ccc(O)c(O)c1 11.2 µM [activator, partial curve]
CSc1cccc(-n2cc(-c3ccc4c(c3)OCO4)[nH]c2=O)c1 31.6 µM [activator, single point]
CCOc1cc(C(=O)Nc2cccc(-c3nc4ccccc4o3)c2)cc(OCC)c1OCC 35.5 µM [activator, single point]
COc1ccccc1NC(=O)c1ccc2c(c1)CCN2S(C)(=O)=O 35.5 µM [activator, single point]
Cc1ccc(-c2onc(C)c2C)cc1S(=O)(=O)NCc1ccco1 35.5 µM [activator, single point]
Cn1ncc2c(NNC(=O)c3ccc(Cl)cc3Cl)ncnc21 7.08 µM [activator, partial curve]
COC(=O)c1ccc(CC2(C)C(=O)Nc3ccc(-c4cccc(C(F)(F)F)c4)cc32)o1 (stereo not given) 35.5 µM [activator, partial curve]
Nc1ccc2nc[nH]c2c1 25.1 µM [activator, partial curve]
Nc1nc(-c2ccccc2)cc(-c2ccccc2O)n1 4.47 µM [activator, partial curve]
CCCCCn1cnc2sc(CC)cc2c1=O 11.2 µM [activator, partial curve, poor fit]
CCOC(=O)C1CCCN(C(=O)c2cc3cc(F)ccc3[nH]2)C1 (stereo not given) 11.2 µM [activator, partial curve]
CCCCn1nnnc1C(c1cc2ccccc2o1)N1CCN(C(=O)OCC)CC1 (stereo not given) 11.2 µM [activator, partial curve]
CC12CC3CC(C)(C1)CC(C(=O)Nc1nncs1)(C3)C2 10 µM [activator, single point]
c1cc2c3c(cccc3c1)NC1(CCC3(CC1)Nc1cccc4cccc(c14)N3)N2 35.5 µM [activator, single point]
CCOc1ccccc1NC(=O)COn1nnc2ccc(Cl)cc21 12.6 µM [activator, single point]
Cc1cccc(CN2C(=O)c3ccccc3Sc3ccc(C(=O)N4CCCC4)cc32)c1 31.6 µM [activator, single point]
Cc1cc(S(=O)(=O)Nc2ccc(N3CCOCC3)cc2)ccc1Br 14.1 µM [activator, single point]
CCCN(CCC)C(=O)CSc1nnc2cc(C)c3cc(C)cc(C)c3n12 14.1 µM [activator, partial curve, poor fit]
Cc1cc(Nc2ccc(C)c(C)c2)n2cnnc2n1 35.5 µM [activator, single point]
C=CCNC(=S)NNC(=O)c1cccc2ccccc12 5.62 µM [activator, full curve, poor fit]
COc1ccc(C(=O)Nc2ccc(-c3nc4ncccc4o3)cc2)cc1 8.91 µM [activator, partial curve, poor fit]
COc1ccc2c(c1)OC[C@H]1[C@H]2N2C(=O)c3cc(OC)c(OC)cc3NC(=O)[C@@]2(C)[C@H]1c1ccccc1 20 µM [activator, single point]
COc1ccc(-c2noc(N3CCC(C(=O)N(C)c4ccccc4C)CC3)n2)cc1 35.5 µM [activator, single point]
COCCCNC(=O)c1c(NC(=O)c2nc(S(C)(=O)=O)ncc2Cl)sc2c1CCCC2 1.12 µM [activator, full curve, poor fit]
Cn1c(SCC(=O)c2cc3ccccc3o2)nnc1-c1ccccc1 20 µM [activator, partial curve]
CCOc1ccccc1NC(=O)CN1C(=O)CC(c2ccco2)Sc2ccccc21 (stereo not given) 17.8 µM [activator, single point]
CC1N(C(=O)N2CCOCC2)CCN1S(=O)(=O)c1cccc(C(F)(F)F)c1 (stereo not given) 25.1 µM [activator, partial curve, poor fit]
Cc1ccc(-c2nc(CSCC(=O)Nc3cc(C)on3)c(C)o2)cc1 6.31 µM [activator, full curve]
Cc1nc(S(=O)(=O)c2ccc(Br)cc2)nc2c1CCC2 11.2 µM [activator, partial curve]
CC(=O)N1Cc2cc([N+](=O)[O-])ccc2Oc2ccccc21 11.2 µM [activator, partial curve]
Cn1/c(=N\NC(=O)c2ccccc2Cl)sc2ccccc21 35.5 µM [activator, partial curve, poor fit]

Growth rescue (activation), inactive:
Cc1ccc(CNC(=O)c2ccc(CSCc3ccc(Cl)cc3)o2)cc1 9.34%
Cc1cn(C)c(CC(=O)Nc2cccc(Cl)c2C)c1C(=O)O 8.2%
O=C(OCc1ccc(-c2ccccc2)cc1)c1cccc(O)c1 -90.7%
CCCN(C(=O)c1cc(S(=O)(=O)N2CCCCC2)ccc1Cl)C1CCS(=O)(=O)C1 (stereo not given) 0.748%
O=C1SC(SCc2ccccc2)=N/C1=C\c1ccco1 -16.9%
O=C(c1cccc([N+](=O)[O-])c1)N1c2ncnn2C2(CCCCC2)[C@@H]2CCCC[C@@H]21 16.9%
O=C(NCc1ccncc1)C(=O)Nc1nc2ccccc2s1 9.49%
O=C(CSc1nnc(C2CC2)n1-c1ccccc1)NCCc1ccccc1 -34.3%
CCN(CC)c1ccc(NC(=O)CSc2nnc(C)c(=O)[nH]2)cc1 6.76%
Cc1ccc(S(=O)(=O)c2cnc(SCC(=O)Nc3cc(C)cc(C)c3)nc2N)cc1 7.41%
O=C(O)CC(NC(=O)C1CCCCC1)c1cc([N+](=O)[O-])ccc1Cl (stereo not given) -8.12%
O=C(/C=C/c1ccco1)Nc1ccccc1N1CCCC1 6%
O=S(=O)(c1ccc2ccccc2c1)n1nc(-c2ccco2)nc1NCc1ccc(F)cc1 5.23%
O=C(C1CCCCC1)N1CCC2CC1c1cc(Cl)ccc12 (stereo not given) 9.57%
Cc1nc(-n2nc(C)c(Cc3ccccc3Cl)c2C)sc1C(=O)N1CCCCC1C (stereo not given) -0.874%

Growth rescue (activation), inconclusive:
COc1ccc(N(CC(=O)NCc2ccc(F)cc2)S(=O)(=O)c2c(C)n[nH]c2C)cc1 30.3% [activator]
